In the supplement of paper PMC4723716:
± gives the uncertainty stated by the source. Over roughly 9,900 compounds, “viability index relative to DMSO control” has its median near 1; the lowest 2% begin near 0.85. Some of the results follow.

These compounds were tested on Plasmodium falciparum NF54 stage V gametocytes (assay: viability index relative to DMSO control (fraction); higher = less gametocyte killing). Conditions: 2.5 µM, library set: Broad Institute DOS, incubation time: 72 h.
In short: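 Viability index is the count of red-stained particles in a well divided by the plate mean of solvent-only wells. Particles of 20–70 µm2 were counted in one imaged field per well after one to two hours with 3 µl of 2.5 µM MitoTracker Red CMXRos and 0.13% saponin. Before staining, P. falciparum NF54 stage V gametocytes in serum-free medium (0.75% gametocytemia, 1.25% hematocrit, 10 µl, 1,536-well plates) were kept with compound at 2.5 µM for 72 hr at 37°C under low oxygen.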
With C[C@H](CO)N1C[C@H](C)[C@H](CN(C)C(=O)[C@H](Cc2ccccc2)N(C)C)OCc2ccccc2-c2c(n(C)c3ccccc23)C1=O the viability index was 1 ± 0.017. Work on N#C[C@H]1[C@H](c2ccc(C3=CCCCC3)cc2)[C@@H](CO)N1C(=O)CN1CCOCC1 yielded a viability index of 1.11 ± 0.05. COc1cccc(CN2C[C@]3(CCN(CC3)S(C)(=O)=O)c3c([C@H]2CO)n(C)c2cc(OC)ccc32)c1 was tested, and the viability index was 1.03 ± 0.018. Work on COc1ccc(S(=O)(=O)Nc2ccc3c(c2)C(=O)N([C@H](C)CO)C[C@H](C)[C@@H](CN(C)Cc2ccc(C(F)(F)F)cc2)OCCCC[C@H](C)O3)cc1 yielded a viability index of 1.07 ± 0.051. In the case of CO[C@@H]1CN(C)C(=O)c2cc(NC(=O)C3CCOCC3)ccc2OC[C@@H](C)NC[C@@H]1C, the viability index is reported as 1.01 ± 0.015. Compound COCC(=O)Nc1ccc2c(c1)[C@@H]1C[C@@H](CC(=O)N[C@@H](C)c3ccccc3)O[C@H](CO)[C@@H]1O2 has a viability index of 1.12 ± 0.022. For C[C@@H]1CN([C@@H](C)CO)C(=O)Cc2cc(NC(=O)c3ccncc3)ccc2O[C@@H]1CN(C)C(=O)Nc1ccc(F)cc1, the viability index was 0.953 ± 0.15. Compound CCCC#Cc1ccc([C@H]2[C@@H](C#N)N(C(=O)CN3CCOCC3)[C@H]2CO)cc1 has a viability index of 1.074 ± 0.01. For COc1cccc(S(=O)(=O)N2C[C@H](O)COC[C@H]3O[C@H](CC(=O)N4CCN(c5ccccc5)CC4)CC[C@@H]32)c1, the viability index was 0.942 ± 0.086. C/C=C/c1ccccc1[C@@H]1[C@H](C#N)N(C(=O)Cc2ccccn2)[C@H]1CO gave a viability index of 1.11 ± 0.025. CC(C)(O)C#Cc1cccc(-c2nc(C(=O)N[C@@H]3CCN(Cc4ccccc4)C3)cc3c2[C@H](CCO)N(S(=O)C(C)(C)C)C3)c1 (stereo not given in full) showed a viability index of 0.921 ± 0.019. With O=C(CC(F)(F)F)N1C[C@@H]2[C@H](c3ccccc31)[C@H](CO)N2C(=O)c1ccncc1 the viability index was 1.04 ± 0.039. For COCC(=O)N1C[C@]2(CN(Cc3ccccc3)C2)c2c([C@@H]1CO)n(C)c1cc(OC)ccc21, the viability index was 1.08 ± 0.085. In the case of O=C(CN1CCOCC1)N1CC(=O)N2[C@H](C1)[C@H](c1ccc(C3=CCCCC3)cc1)[C@@H]2CO, the viability index is reported as 1.02 ± 0.035. COc1ccccc1CN1[C@H](CO)[C@@H]2c3ccccc3N(C(=O)c3cccnc3)C[C@@H]21 showed a viability index of 1.08 ± 0.02. In the case of COc1ccccc1S(=O)(=O)N(C)C[C@H]1OCc2cn(nn2)CCCC(=O)N([C@H](C)CO)C[C@H]1C, the viability index is reported as 1.04 ± 0.018. COc1ccc2c3c([nH]c2c1)[C@@H](CO)N(CC1CCCC1)C[C@]31CN(C)C1 showed a viability index of 0.986 ± 0.041. O=C(C[C@@H]1CC[C@@H]2NC[C@@H](O)COC[C@H]2O1)NC1Cc2ccccc2C1 showed a viability index of 1.05 ± 0.02. For Cc1ccc(-c2ccccc2[C@H]2[C@@H](C#N)N(C(=O)c3cccc(F)c3)[C@H]2CO)cc1, the viability index was 1.13 ± 0.053. Compound CNC[C@@H]1Oc2ccc(NC(=O)CCC(F)(F)F)cc2C(=O)N([C@H](C)CO)C[C@H]1C has a viability index of 0.984 ± 0.14. For O=C(C[C@H]1CC[C@H](NC(=O)C2CC2)[C@@H](CO)O1)Nc1ccccc1, the viability index was 0.981 ± 0.031. Compound O=C(NCC[C@H]1CC[C@@H](NS(=O)(=O)Cc2ccccc2)[C@H](CO)O1)C1CCCCC1 has a viability index of 1.02 ± 0.02. Compound O=C(C[C@@H]1CC[C@H](NS(=O)(=O)c2ccccc2F)[C@H](CO)O1)NCCCN1CCOCC1 has a viability index of 0.941 ± 0.04. Cc1ccc(S(=O)(=O)N[C@@H]2CC[C@H](CC(=O)NCc3ccncn3)O[C@@H]2CO)cc1 gave a viability index of 1.04 ± 0.07. Work on Cc1ccccc1S(=O)(=O)N1[C@H](C#N)[C@@H](c2ccc(C#CC3CC3)cc2)[C@@H]1CO yielded a viability index of 1.06 ± 0.028. C[C@@H](NC(=O)C[C@H]1CC[C@H]2[C@@H](COc3ccc(NS(=O)(=O)c4ccc(Cl)cc4)cc3C(=O)N2C)O1)c1ccccc1 gave a viability index of 0.953 ± 0.16. CCCC#Cc1ccc([C@@H]2[C@H](CO)N3C(=O)CN(C(=O)c4cccnc4)C[C@@H]23)cc1 was tested, and the viability index was 1.12 ± 0.035. Work on CN1C(=O)c2cc(NC(=O)c3cscn3)ccc2OC[C@H]2O[C@@H](CC(=O)N3CCOCC3)CC[C@@H]21 yielded a viability index of 1.11 ± 0.11. In the case of O=C(C[C@@H]1CC[C@@H]2[C@H](COC[C@H](O)CN2S(=O)(=O)c2ccccc2F)O1)N1CCC(Cc2ccccc2)CC1, the viability index is reported as 1.0556 ± 0.00047. For CO[C@H]1CC[C@H]2CCOc3c(C#N)cccc3C(=O)N(C)C[C@H](OC)[C@H](C)C(=O)N(C)C[C@@H]1O2, the viability index was 1.01 ± 0.047. In the case of CCC(=O)N1C[C@]2(CCN(CC2)C(=O)Cc2ccccc2)c2c([C@H]1CO)n(C)c1cc(OC)ccc21, the viability index is reported as 0.996 ± 0.055. CO[C@H]1CN(C)C(=O)c2cc(NC(C)=O)ccc2OC[C@H](C)N(S(C)(=O)=O)C[C@H]1C gave a viability index of 1.07 ± 0.09. With C[C@H](CO)N1C[C@H](C)[C@H](CN(C)Cc2ccc(C(=O)O)cc2)Oc2ccc(NC(=O)CCN3CCOCC3)cc2CC1=O the viability index was 1.03 ± 0.024. O=C(NC1CCCC1)N1CCCCN2[C@H](CO)[C@H](c3ccc(-c4cccnc4)cc3)[C@H]2C1 gave a viability index of 1.01 ± 0.052. Compound Cc1ccc(-c2ccc([C@@H]3[C@H]4CNC[C@@H]3N4C(=O)NC(C)C)cc2)cc1 has a viability index of 1.12 ± 0.027. COc1ccc2c3c([C@H](CO)N(C[C@]33CN(Cc4ccccc4F)C3)C(=O)Nc3ccc(F)cc3)n(C)c2c1 showed a viability index of 1 ± 0.091. COc1ccc(CN2C[C@@H](O)COC[C@@H]3O[C@@H](CC(=O)N(C)C)CC[C@H]32)cc1 gave a viability index of 1.12 ± 0.013. Work on CO[C@@H]1CC[C@@H]2CCOc3ccc(C#N)cc3C(=O)N(C)C[C@@H](c3ccccc3)CC(=O)N(C)C[C@H]1O2 yielded a viability index of 1.02 ± 0.075. For COc1ccc(S(=O)(=O)Nc2cccc3c2O[C@@H](CN(C)CC2CCCCC2)[C@@H](C)CN([C@@H](C)CO)C3=O)cc1, the viability index was 0.969 ± 0.07. Compound COc1ccccc1-c1ccc([C@H]2[C@H]3CNC[C@@H]2N3S(=O)(=O)c2ccc(F)cc2)cc1 has a viability index of 1.05 ± 0.071. For O=C(c1ccccc1F)N1CC(=O)N2[C@H](CO)[C@@H](c3ccc(C#Cc4ccccc4)cc3)[C@@H]2C1, the viability index was 0.982 ± 0.024. Cc1ccccc1-c1ccc([C@H]2[C@@H](CO)N3CCCCN(S(=O)(=O)Cc4ccccc4)C[C@H]23)cc1 gave a viability index of 0.952 ± 0.028. COc1ccccc1-c1ccc2c(c1)O[C@@H](CN(C)CC1CCOCC1)[C@@H](C)CN([C@@H](C)CO)S2(=O)=O showed a viability index of 1.01 ± 0.08. For CC(=O)N1[C@H](CO)[C@H](c2ccccc2)[C@@H]1CN(CC(C)C)C(=O)c1ccccn1, the viability index was 1.05 ± 0.012. O=C(C[C@H]1CC[C@@H]2[C@H](COC[C@H](O)CN2Cc2ccc(Oc3ccccc3)cc2)O1)N1CCN(c2ccccc2)CC1 was tested, and the viability index was 1.08 ± 0.12.
